Data as given in paper PMC3602246 (BMC Pharmacology & Toxicology, 2013).
Where a name gives a salt, the structure may show the parent alone. No end group written: not given here.

How the values were obtained:
HEK293 cells = settings: ligand 10 μM; for DMR agonist activity classification, HEK: parental HEK293
SH-SY5Y cells = assay: iPOT DMR profiling of SH-SY5Y cells pretreated with probe molecules; settings: 1 hr, ligand 10 μM; for effect of the kinase inhibitors on ligand DMR: U0126, SB202190, SP600125 or LY294002, 10 μM; for effect of forskolin pretreatment on ligand DMR: 10 μM forskolin

Compound | DMR in parental HEK293 cells, in words (HEK293 cells) | DMR agonist activity classification, HEK (HEK293 cells) | effect of the kinase inhibitors on ligand DMR (SH-SY5Y cells) | effect of forskolin pretreatment on ligand DMR (SH-SY5Y cells)
O=C1/C(=C/c2ccccc2)C[C@@]2(O)[C@H]3Cc4ccc(O)c5c4[C@@]2(CCN3CC2CC2)[C@H]1O5 [BNTX] | noticeable DMR | off-target |  | 
COC(=O)N1CCN(C(=O)Cc2ccc(Cl)c(Cl)c2)C(CN2CCCC2)C1 (stereo not shown) [GR 89696] |  |  | mostly suppressed | 
CN(C(=O)Cc1ccc(Cl)c(Cl)c1)[C@H](CN1CCCC1)c1ccccc1 [ICI 199,441] | noticeable DMR | off-target |  | 
C=CCN1CC[C@]23c4c5ccc(O)c4O[C@H]2C(=O)CC[C@@]3(O)[C@H]1C5 [Naloxone HCl] |  | inactive |  | 
COC(=O)/C=C/C(=O)N[C@@H]1CC[C@@]2(O)[C@H]3Cc4ccc(O)c5c4[C@@]2(CCN3CC2CC2)[C@H]1O5 [β-Funaltrexamine] | noticeable DMR | off-target |  | 
DSLET |  |  |  | suppressed
Dynorphin A (1–8) (YGGFLRRI; Dynorphin A(1-8); UniProt P01213 207-214, looked up, fragment) |  |  | mostly suppressed | suppressed
Nociceptin (1–13) (FGGFTGARKSARK-NH2; UniProt Q13519 130-142, looked up, fragment) | noticeable DMR | off-target |  | 
